Data: PMC11667815
No constants are given. Whether binding was seen depends on the method and setting. In cells and extracts the contact can be indirect. Some entries that bind do so weakly or less than the wild type. Sequences can lack the tags named with a protein.

Biological target: T1, 3×Flag-BID 1-195 (UniProt P55957)
T1 sequence: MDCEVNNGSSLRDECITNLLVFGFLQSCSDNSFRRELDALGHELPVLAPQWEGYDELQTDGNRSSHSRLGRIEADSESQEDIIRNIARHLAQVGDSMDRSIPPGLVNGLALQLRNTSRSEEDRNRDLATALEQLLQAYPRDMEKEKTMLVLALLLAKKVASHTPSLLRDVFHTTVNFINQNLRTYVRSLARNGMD
Assay: co-IP; HEK293T cells transfected with the indicated plasmids for 24 h; lysates (2000 μg protein) incubated with anti-Flag magnetic beads overnight at 4°C, washed 3 times with lysis buffer; immunoblotted with antibodies against Flag or HA

B1: Casp4 p33/p10 form (complex, UniProt P49662 1-289; P49662 290-377)
chain 1: MAEGNHRKKPLKVLESLGKDFLTGVLDNLVEQNVLNWKEEEKKKYYDAKTEDKVRVMADSMQEKQRMAGQMLLQTFFNIDQISPNKKAHPNMEAGPPESGESTDALKLCPHEEFLRLCKERAEEIYPIKERNNRTRLALIICNTEFDHLPPRNGADFDITGMKELLEGLDYSVDVEENLTARDMESALRAFATRPEHKSSDSTFLVLMSHGILEGICGTVHDEKKPDVLLYDTIFQIFNNRNCLSLKDKPKVIIVQAARGANRGELWVRDSPASLEVASSQSSENLEED
chain 2: AVYKTHVEKDFIAFCSSTPHNVSWRDSTMGSIFITQLITCFQKYSWCCHLEEVFRKVQQSFETPRAKAQMPTIERLSMTRYFYLFPGN
binding: binds

B2: Casp4-HA 1-377 C258A (FL) (enzyme, UniProt P49662 1-377)
chain: MAEGNHRKKPLKVLESLGKDFLTGVLDNLVEQNVLNWKEEEKKKYYDAKTEDKVRVMADSMQEKQRMAGQMLLQTFFNIDQISPNKKAHPNMEAGPPESGESTDALKLCPHEEFLRLCKERAEEIYPIKERNNRTRLALIICNTEFDHLPPRNGADFDITGMKELLEGLDYSVDVEENLTARDMESALRAFATRPEHKSSDSTFLVLMSHGILEGICGTVHDEKKPDVLLYDTIFQIFNNRNCLSLKDKPKVIIVQAARGANRGELWVRDSPASLEVASSQSSENLEEDAVYKTHVEKDFIAFCSSTPHNVSWRDSTMGSIFITQLITCFQKYSWCCHLEEVFRKVQQSFETPRAKAQMPTIERLSMTRYFYLFPGN
binding: no binding

B3: Casp4-HA 1-289 C258A (p33) (domain or fragment, UniProt P49662 1-289)
chain: B1 chain 1
binding: no binding

B4: Casp4-HA 102-289 C258A (p22) (domain or fragment, UniProt P49662 102-289)
chain: STDALKLCPHEEFLRLCKERAEEIYPIKERNNRTRLALIICNTEFDHLPPRNGADFDITGMKELLEGLDYSVDVEENLTARDMESALRAFATRPEHKSSDSTFLVLMSHGILEGICGTVHDEKKPDVLLYDTIFQIFNNRNCLSLKDKPKVIIVQAARGANRGELWVRDSPASLEVASSQSSENLEED
binding: no binding

B5: Casp4 p22/p10 form (complex, UniProt P49662 102-289; P49662 290-377)
chain 1: B4 chain
chain 2: B1 chain 2
binding: no binding
